Values come from read counts of a selection and are noisy.
Tested on: NB7
Test: fold depletion of shRNA, plasmid library share / infected cells without Dox share (9 days) (ratio); higher = more depleted after infection (more toxic, leaky expression from a Tet-inducible vector; NB7 is a neuroblastoma line without caspase-8)
Conditions: shRNA pool: CD95L ORF + CD95L 3'UTR + Venus libraries
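Further: shRNA barcodes quantified by deep sequencing of PCR amplicons from cellular DNA, counts expressed as percent of each subpool, ratio averaged over two biological duplicates.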

Sequence	fold depletion of shRNA
TCAATTACCCATATCCCCAGA	2.11
CACAGCATGTGTATTTCCAGT	4
ATAGGCCACCCCAGTCCACCC	0.113
TATCCTGAGCCATCGGTGAAA	0.868
GCACACAGCATCATCTTTGGA	6.03
CAGATACATGGTTGTGACCTG	1.13
TCCGGCGAGGGCGAGGGCGAT	0.702
ACATGAACCAAGTGGACCTTG	2.85
CCGAGGTGAAGTTCGAGGGCG	0.93
TAAGCAAGAGAGATGTTTTGG	0.447
ACTCCGAGAGTCTACCAGCCA	1.46
GGTGGACAGCAGTGCCAGCTC	1.13
AAGGGCATCGACTTCAAGGAG	1.7
ACATCCTGGGGCACAAGCTGG	4.34
CCGTGCCCTGGCCCACCCTCG	0.629
CTGGAGTACAACTACAACAGC	2.14
CCATCGGCGACGGCCCCGTGC	0.927
CACCACCGGCAAGCTGCCCGT	0.981
ACCTCAAGGGGGACTGTCTTT	2.32
ATATCCCCAGATCTACTGGGT	9.12

Sequence	fold depletion of shRNA
GAACGGCATCAAGGCCAACTT	0.609
TGGGGATGTTTCAGCTCTTCC	5.5
CTGCCCGACAACCACTACCTG	1.83
AGTCCAACTCAAGGTCCATGC	23.6
CTGAGCCATCGGTGAAACTAA	3.5
AAGAACATAGAACTCTGGGCT	1.32
ACATCGAGGACGGCGGCGTGC	0.304
TGAGCCAGACAAATGGAGGAA	0.68
ATGCATATCCTGAGCCATCGG	10.3
TTGAATGCTTCCTGACAATCA	1.55
AAAAGCAGCTACCAGGTGTTC	1.54
ACCACTACCTGAGCTACCAGT	3.23
GCATCGACTTCAAGGAGGACG	0.633
ACAACAGCCACAACGTCTATA	3.28
TATGACGGAAGAACATAGAAC	2.55
AGCCATCGGTGAAACTAACAG	1.08
TCGAGGACGGCGGCGTGCAGC	0.224
AGAGGCTGAAAGAGGCCAATG	1.36
ACCTCTGTGCCCAGAAGGCCT	4.6
ACGAGAAGCGCGATCACATGG	0.841

Sequence	fold depletion of shRNA
TGAGGGTCTTCTTACATGCAT	1.24
GTCAATCTTGCAACAACCTGC	1.11
TGCCATGTGAAGAGGGAGAAG	1.08
ACCACCACCGCCACCGCCACC	11.1
CTGTACTTTGTATATTCCAAA	0.377
CCCGTGCTGCTGCCCGACAAC	0.877
TTTGGGATTCTTTCCATTATG	0.918
AAGAACGGCATCAAGGCCAAC	1.26
GGTTCTGGTTGCCTTGGTAGG	0.411
TTATGTAGATGTGCATTTTTG	8.55
TTCCATTATGATTCTTTGTTA	0.515
GTGCTTCGCCCGCTACCCCGA	0.294
ATGATGGAGGGGAAGATGATG	2.73
AGTGAAGTATAAGAAGGGTGG	0.981
CGCCACCACTGCCTCCACTAC	10.6
AACTGGGCTGTACTTTGTATA	0.751
GGATTCTTTCCATTATGATTC	1.37
CAATGCCCCACTGGCAGCATC	1.46
CAGCAGCCCTTCAATTACCCA	0.389

Same assay, conditions: shRNA pool: CD95 ORF + CD95 3'UTR + Venus libraries

Sequence	fold depletion of shRNA
AGCGCTGAAGAGCCAACATAT	5.79
ATACAATATTTCAATTGTGAA	0.869
CAGGTGAAAGGAAAGCTAGGG	0.908
TCACATAGAAAACATTAAATT	0.827
AATGTGAATTTTAAGAAATAA	1.4
GCATCATGATGGCCAATTCTG	0.114
TACAAATGGCAGCTTATACAT	0.788
AACTGAAGCAGATACCTGGAA	1.66
TCCGGCGAGGGCGAGGGCGAT	1.11
TATAGGTAAAAGTACGTAATT	0.921
ATCATATTTATGTAAAGTATA	1.01
GACAAAGCCCATTTTTCTTCC	1.75
AGTGGAAATAAACTGCACCCG	4.62
CATTTATGGAGGATTTTTTTG	1.25
CCGAGGTGAAGTTCGAGGGCG	0.879
GACAATGTCCAAGACACAGCA	2.15
ACACATTGATTAAAGATCTCA	0.954
AAGGGCATCGACTTCAAGGAG	0.634
AATCTAGTTGGGAAAACAAAC	0.852
ATAATGTTTGACTATTATATA	0.792
ACATCCTGGGGCACAAGCTGG	1.8
CCGTGCCCTGGCCCACCCTCG	0.541
TAGTACAAATGTCTATCCACA	1.05
CGTATGACACATTGATTAAAG	0.875
CTGGAGTACAACTACAACAGC	1.57
CTTTAAATCCTGAAACAGTGG	0.828
CCATCGGCGACGGCCCCGTGC	1.07

Sequence	fold depletion of shRNA
CACCACCGGCAAGCTGCCCGT	1.12
TTCAATTGTGAATTCACATAG	1.58
GAACGGCATCAAGGCCAACTT	0.777
GTATTAAATGTGAATTTTAAG	3.02
CTGCCCGACAACCACTACCTG	1.27
GAAAGAATGGTGTCAATGAAG	1.16
TGATTAAAGATCTCAAAAAAG	0.975
ATGTCCCATGTAAAACCTGCT	2.7
GGACATGGCTTAGAAGTGGAA	1.79
GATCTAACTTGGGGTGGCTTT	3.2
AAAACAACAAATTCAGTTCTG	1.12
GGACATTACTAGTGACTCAGA	1.17
TTCAGAAATGAAATCCAAAGC	0.707
ACATCGAGGACGGCGGCGTGC	0.282
GCATTTTGAGCAGGAGAGTAT	2.42
TGTATGCAGAGGATGAAAGAT	2.17
GTGCAAAGAGGAAGGATCCAG	2.38
TCTGCCTCCAAGGATGTTTAA	0.271
AAGCCCATTTTTCTTCCAAAT	1.35
GCATCGACTTCAAGGAGGACG	0.918
GACTATCATCCTCAAGGACAT	1.42
ACAACAGCCACAACGTCTATA	2.21
CAAAGATGATAAAATAGATTC	1.19
CTTCTTTCTCAGGCATCAAAA	1.76
TTCCCCCACCCCCGAAAATGT	3.14
TTGGCATCAACTTCATGGAAA	3.69
GAGATTTTACCATATTTCTAA	0.943

Sequence	fold depletion of shRNA
TCGAGGACGGCGGCGTGCAGC	0.26
ACGAGAAGCGCGATCACATGG	1.12
CATTTATTAGCGCTGAAGAGC	1.19
CCCGTGCTGCTGCCCGACAAC	0.871
AAGAACGGCATCAAGGCCAAC	0.712
AATAAATTTATCTGATGTTGA	1.09
ATCAAGAATGACAATGTCCAA	1.13
CTAGATTATCGTCCAAAAGTG	1.68
GAGGATGAAAGATTAAGATTA	1.26
CATGATTCTGCCTCCAAGGAT	4.73
ATTTCAATTGTGAATTCACAT	0.771
GTGCTTCGCCCGCTACCCCGA	1.12
CAGAAATGAAATCCAAAGCTT	1.62
TACCCAAATAGGAGTGTATGC	1.29
CAAATGGCAGCTTATACATAG	1.54
AATGTTTGACTATTATATATG	0.849
ATCTTTGAAAGTTTGTATTAA	0.637
TGACCCTTGCACCAAATGTGA	1.03
CTCTCCATTTTTGCCTTGGTG	20.9
AGTTTGTATTAAATGTGAATT	1.32
CAGTTTATTGGTGTCATATTA	1.29
TGTTTGCAATCAAAGATGATA	1.86
AGGAGTACACAGACAAAGCCC	1.51
CTTACGTCTGTTGCTAGATTA	1.73
GCTGCTGCCCGACAACCACTA	1.68
